Results reported in ChEMBL document CHEMBL4888484, “Replenishing the malaria drug discovery pipeline: Screening and hit evaluation of the MMV Hit Generation Library 1 (HGL1) against asexual blood stage Plasmodium falciparum ,using a nano luciferase reporter read-out” (2022).
Out of some 150,000 compounds screened, about 540 (0.36%) showed an effect of 50% or more. The list shows a part of the results.

Test system: Plasmodium falciparum
Test: Primary screen in NF54 nanoGlo assay, in single point, at 2uM, 72h; a lower Z score goes with more inhibition
Type: functional, Erythrocyte
Details: timepoint 72 hour

SMILES | % Inhibition [%] | Z score
CCc1nn(-c2ccc(OC)cc2)c(Oc2cccc(F)c2)c1CCC(=O)Nc1ccc(F)cc1 | 13 | -2.26
COc1ccccc1CC(=O)N1CCC[C@@H]1C(=O)O | -5 | 0.68
CC(C)c1cc(CNC(=O)c2n[nH]c(N)c2Cl)no1 | -14 | 1.27
O=C(NCc1ccccn1)c1ccc(CN2C(=O)NC3(CCS(=O)(=O)CC3)C2=O)cc1 | 1 | -0.16
O=C(CCc1ccc(-c2ccccc2)o1)N1CCN(c2ccnc3cc(Cl)ccc23)CC1 | -14 | 2.04
CC(C)c1nc([C@H]2CCCN(c3ccc(C#N)cc3F)C2)no1 | 4 | -0.49
CCCCCOCC(=O)N1CCN(CC(F)(F)CO)CC1 | -9 | 1.22
CCC(CC)(CO)c1nc(-c2ccncc2)no1 | -7 | 0.64
Cn1cnc2cc(-c3noc(CCc4c[nH]c5ccccc45)n3)ccc21 | -14 | 1.29
CC(=O)N1CCC(c2nnc(C(F)(F)F)o2)CC1 | -11 | 1.24
COCCCCC(=O)Nc1cccc(C(F)(F)F)c1C | -7 | 1.17
C[C@H](O)c1ccccc1NC(=O)c1ccc(-c2ccco2)[nH]c1=O | -3 | 0.53
CCCc1ccc(CN2C[C@@H]3CC[C@H]2CN(Cc2c(C)noc2C)C3)o1 | -10 | 0.95
O=C1CCCN1c1ccc(S(=O)(=O)N2CCC(c3nc4ccccc4s3)CC2)cc1 | -37 | 4.36
CCN1CCCN(CC(=O)N2C(C)CCCC2C)CC1 (stereo not drawn) | 3 | -0.46
Cc1ccc2oc(N3C[C@@H](CN4CCCN(C)CC4)[C@@H](CO)C3)nc2c1 | -5 | 0.53
CCOC(=O)CCNC(=O)Nc1nc2c(s1)CN(S(=O)(=O)c1ccccc1)CC2 | -15 | 1.38
Cc1cc(C2(NC(=O)Nc3ccc(-c4nccc(C)n4)cc3)CCOCC2)on1 | -5 | 0.95
COC(=O)c1c(CN2CCNC(=O)C2)nc2ccccc2c1-c1ccccc1 | -17 | 3.26
Cc1cc(C(=O)N[C@H](c2cncc(Br)c2)C2CC2)no1 | 3 | -0.48
Cc1cccc(O[C@H](C(=O)N(C)Cc2nnc(C)o2)C(C)C)c1 | 1 | -0.13
Cc1n[nH]c(C2CN(C(C)C(=O)NCCc3ccccc3)CCO2)n1 (stereo not drawn) | -1 | 0.15
Cc1cccc(-n2nnc(C(=O)NCc3ccccc3C(F)(F)F)c2-c2cccnc2)c1 | 3 | -0.4
N#CC1(c2nc(Cc3cc(F)cc(F)c3)no2)CCCC1 | -2 | 0.37
O=C1NC(=O)[C@@H]2CN(c3ccnc4ccsc34)C[C@H]12 | -9 | 1.71
COc1ccccc1C(=O)CN1C(=O)C(=O)N(C2CCCCC2)C1=O | -6 | 0.81
COc1cc(-c2cccc(C(=O)NCC[C@H]3CCOC3)c2)nc(OC)n1 | -3 | 0.37

SMILES | % Inhibition [%] | Z score
O=S(=O)(CCCF)NCC1CN(S(=O)(=O)c2ccccc2)C2CCN1C2 (stereo not drawn) | -4 | 0.47
CCc1cc(-c2c(C)c(-c3ccc(O)cc3)nc(N)c2C#N)[nH]n1 | -13 | 1.65
Cc1noc([C@]23CN(C(=O)CC(C)C)C[C@H]2CN(C(=O)c2ccccc2)C3)n1 | -5 | 0.61
O=C(c1cn2c3c(cccc3c1=O)CC2)N1CCc2ccccc2C1 | 6 | -0.73
Cc1cc(C)nc(CCNC(=O)N2CCC3(CC2)CN(C)C(=O)CO3)n1 | -7 | 1.47
COCC1(NC(=O)c2cccc(-c3ccc4c(cnn4C)c3)c2)CCCC1 | 3 | -0.34
Cc1ccc(C(=O)N2C[C@@H]3C[C@H](NS(C)(=O)=O)[C@H]2C3)cc1F | -3 | 0.55
CCOCCCC(=O)N1CCC[C@H](c2nnc3ccccn23)C1 | -9 | 1.74
O=C(Cc1cccnc1)Nc1ccc(N2CCN(C3CCCCC3)C2=O)nc1 | -9 | 1.03
Cc1csc(NC(=O)CN2CCC[C@@H]2C(=O)O)n1 | -4 | 0.48
CN(Cc1ccsc1)C(=O)CNC(=O)c1cccc(OC(F)F)c1 | -3 | 0.37
O=C(Cc1ccc(F)cc1)Nc1cc(NC(=O)c2ccc3c(c2)OCO3)ccc1F | -4 | 0.52
CC1CN(C(=O)c2cccc3sc(C(F)(F)F)nc23)C1 | -1 | 0.24
CC(Oc1ccccc1)C(=O)N1CCC[C@@H]1Cn1ccnc1 (stereo partly drawn) | 2 | -0.48
Cc1ccccc1CNc1ncnc2c1cnn2-c1ccccn1 | -7 | 1.09
Cc1c(C(=O)N(C)CCn2cccn2)nnn1CC1CCCC1 | -6 | 0.79
CCOC(=S)c1cc2c(nc1OCC#N)CCC2 | -14 | 1.64
CCc1ccc(CN2CC[C@H](c3sccc3C)[C@@H](O)C2)nc1 | -19 | 3.74
COc1nc2c(cc1CNC(=O)[C@]1(C)CCCCO1)C(=O)N(C1CCCC1)C2 | -9 | 1.82
CC(C)CCOc1ccccc1CCNC(=O)N1CCC[C@H]1C(=O)N(C)C | -11 | 1.61
COc1ccccc1CCC(=O)N1C[C@H]2CCC[C@@H](OC)[C@H]2C1 | -13 | 1.28
CC(C)CN(C[C@H](O)c1ccccc1)S(=O)(=O)c1cccnc1 | 11 | -1.42
Cc1nc(CNC(=O)CC(C)C)cs1 | 14 | -1.57
CC[C@H](OC1CCCC1)C(=O)NCc1c(O)nnc(C)c1C | -5 | 1
Cc1cc(=O)cc(C(=O)NC[C@H]2CC(=O)N(C(C)(C)C)C2)[nH]1 | 0 | 0.06
OC1(c2csc(CN3CCOCC3)n2)CCN(Cc2ccccn2)CC1 | -9 | 1.39
C[C@]12C(=O)N(CCc3ccccc3)C(=O)N1CCc1c2[nH]c2ccccc12 | -4 | 0.47
